In the GPR68 mutational scans of Howard et al. (2025):
Scores whose standard error is large were omitted. Not listed are two conditions whose scores span a narrow range. Read del as a deletion of the residues named and ins as an insertion between two positions. For part of these data: How much ogerin was present is not stated here.

B1: GPR68, Q15743 (parent)
chain: MGNITADNSSMSCTIDHTIHQTLAPVVYVTVLVVGFPANCLSLYFGYLQIKARNELGVYLCNLTVADLFYICSLPFWLQYVLQHDNWSHGDLSCQVCGILLYENIYISVGFLCCISVDRYLAVAHPFRFHQFRTLKAAVGVSVVIWAKELLTSIYFLMHEEVIEDENQHRVCFEHYPIQAWQRAINYYRFLVGFLFPICLLLASYQGILRAVRRSHGTQKSRKDQIQRLVLSTVVIFLACFLPYHVLLLVRSVWEASCDFAKGVFNAYHFSLLLTSFNCVADPVLYCFVSETTHRDLARLRGACLAFLTCSRTGRAREAYPLGAPEASGKSGAQGEEPELLTKLHPAFQTPNSPGSGGFPTGRLA

Tests used:
[1] = variants of: B1; assay: cAMP reporter score (Enrich2 score, wild type = 0); higher = more signal; HEK293T, FACS bins
[2] = variants of: B1; assay: surface expression score (Enrich2 score, wild type = 0); higher = more signal; HEK293T, FACS bins

Row | Variant | cAMP reporter score ([1]; pH 5.5) | cAMP reporter score ([1]; pH 6) | cAMP reporter score ([1]; pH 6, modulator: ogerin) | cAMP reporter score ([1]; pH 6.5, modulator: ogerin) | surface expression score [2]
1 | T22L | 0.994 | -0.336 | 0.651 | -0.16 | 1.72
2 | T22M | 0.32 | -0.551 | 0.354 | -0.222 | 1.85
3 | T22N | -0.309 | 0.183 | -0.766 | -0.384 | -0.716
4 | T22P | -1.51 | -0.711 | -1.2 | -0.821 | -3.18
5 | T22Q | -1.62 | -1.12 | -1.81 | -1.33 | -1.78
6 | T22R | 0.429 | -0.533 | -0.667 | -0.341 | 0.784
7 | T22S | -0.126 | -0.3 | -0.256 | -0.489 | -0.669
8 | T22V | 0.074 | -0.646 | 0.206 | -0.107 | 1.17
9 | T22W | 1.16 | 1.31 | 1.13 | 1.53 | 1.7
10 | T22Y | 0.552 | 0.983 | 0.887 | 1.13 | 1.28
11 | T22_A24del | -1.21 | 0.189 | -2.29 | -1.59 | -2
12 | T22_L23del | -1.09 | -0.203 | -1.11 | -0.586 | -2.8
13 | L23A | -0.776 | -0.684 | -1.12 | -1.02 | -1.96
14 | L23C | 0.275 | – | – | – | -3.2
15 | L23D | -1.77 | – | – | – | -2.92
16 | L23E | -1.49 | 0.209 | -1.99 | -1.06 | -3.48
17 | L23F | -0.62 | 0.117 | -0.647 | -0.216 | -0.679
18 | L23G | -1.22 | -0.517 | -1.2 | -0.964 | -1.46
19 | L23H | -1.54 | -1.66 | -1.53 | -1.65 | -1.94
20 | L23I | 0.165 | 0.193 | -0.633 | 0.184 | 0.384
21 | L23K | -1.77 | -1.61 | -1.94 | -1.49 | -2.61

Row | Variant | cAMP reporter score ([1]; pH 5.5) | cAMP reporter score ([1]; pH 6) | cAMP reporter score ([1]; pH 6, modulator: ogerin) | cAMP reporter score ([1]; pH 6.5, modulator: ogerin) | surface expression score [2]
22 | L23M | -1.1 | -0.507 | -1.34 | -0.385 | -2.04
23 | L23N | -2.81 | – | -0.661 | – | -3.45
24 | L23P | -0.426 | 0.655 | -0.674 | -0.612 | -2.46
25 | L23Q | -1.47 | -1.73 | -1.25 | -1.18 | -2.4
26 | L23R | -0.705 | -1.06 | – | -1.87 | -3.03
27 | L23S | -1.61 | -1.31 | -1.15 | -0.923 | -2.5
28 | L23T | -1.41 | – | -1.55 | -2.25 | -1.86
29 | L23W | 0.585 | -0.218 | 0.862 | -0.159 | 1.48
30 | L23Y | -0.624 | -0.771 | -1.18 | -1.09 | -1.15
31 | A24C | -0.585 | -0.757 | -1.19 | -0.386 | -1.82
32 | A24D | -0.765 | -0.067 | -1.67 | -0.98 | -2.02
33 | A24E | -2.28 | – | – | – | –
34 | A24F | 0.854 | 2.2 | 0.443 | 2.64 | 0.236
35 | A24G | 0.218 | -0.617 | -0.915 | -2.06 | 0.078
36 | A24H | -0.485 | – | -0.239 | 0.046 | -0.616
37 | A24I | -1.07 | -0.614 | -1.37 | -0.744 | 1.35
38 | A24K | -0.922 | -0.311 | -0.755 | -0.695 | -1.76
39 | A24L | -1.93 | -1.49 | -1.23 | -0.749 | 1.06
40 | A24M | -0.857 | -0.564 | -1.21 | -0.615 | 0.354
41 | A24N | -0.646 | 0.966 | -1.02 | 0.548 | -1.38
42 | A24P | -1.7 | -1.59 | -1.55 | -1.5 | -2.02

Row | Variant | cAMP reporter score ([1]; pH 5.5) | cAMP reporter score ([1]; pH 6) | cAMP reporter score ([1]; pH 6, modulator: ogerin) | cAMP reporter score ([1]; pH 6.5, modulator: ogerin) | surface expression score [2]
43 | A24Q | -1.52 | -1.28 | -1.34 | -1.96 | -0.353
44 | A24S | 0.94 | 1.11 | 1.15 | 1.67 | -0.37
45 | A24T | -0.723 | -1.19 | -0.703 | -0.634 | -0.531
46 | A24V | -1.72 | -1.96 | -1.5 | -1.63 | -0.656
47 | A24W | -0.593 | -0.39 | -1.21 | -1.19 | -0.176
48 | A24Y | -0.932 | -0.857 | -1.33 | -0.915 | -0.267
49 | A24_P25insG | -1.03 | -1.37 | -1.55 | -0.647 | -2.31
50 | A24_P25insGSG | -1.24 | -1.1 | -1 | -1.03 | -2.87
51 | P25_V26del | -1.28 | -1.09 | -0.926 | -0.681 | -1.85
52 | V27_Y28del | -1.37 | -0.833 | -1.77 | -0.823 | -2.36
53 | V27del | -1.32 | -1.48 | -1.11 | -0.939 | -0.959
54 | T30_L32del | -2.05 | -0.819 | -1.78 | -1.05 | -2.53
55 | T30_V31insGS | -0.482 | -0.092 | -0.575 | -0.912 | -2.31
56 | T30_V31insGSG | -1.93 | -1.15 | – | -0.255 | –
57 | V31_L32insGSG | -0.561 | -0.881 | -1.04 | -1.35 | -3.27
58 | V31del | -0.57 | -0.499 | -1.44 | -0.841 | -2.17
59 | L32A | -0.305 | -0.903 | -0.127 | -1.01 | -2.56
60 | L32C | -0.309 | -0.9 | -0.439 | -1.06 | -2.26
61 | L32D | -1.82 | -1.74 | -1.4 | -2.03 | -2.51
62 | L32E | -0.192 | -0.582 | – | -0.668 | -2.09
63 | L32F | -0.316 | -0.482 | -0.824 | -0.919 | 0.08
